Assay results from article PMC12040169 (PLOS Biology, 2025).
This is one part of the list.

system: T1, C. trachomatis L2/434/Bu expressing GFP (CTL2-GFP); set-up: species or system HeLa; C. trachomatis total inclusion area by high-content imaging, normalised to DMSO; settings: total inclusion area; 28.5 h, 10 µM; inhibitor
T1 construct: L2/434/Bu GFP intracellular growth in HeLa cells
Summary of the method: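 Following bulk GFP and resorufin fluorescence reads, infected cells were fixed, Hoechst-stained and imaged on a high-content platform. Inclusion total area and number per well served as growth proxies; nuclei counts indicated host viability. MICs were derived as for the fluorescence assay.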

Row | Structure (SMILES) | % of control remaining
1 | FC(F)(F)c1ccnc(Sc2cccc(Cl)c2)n1 [CBK115247] | 75.0671
2 | COc1ccccc1N1CCN(/N=C\c2ccccc2OCC(=O)O)CC1 [CBK263173C] | 115.903
3 | CC(=O)Nc1ccc(-c2ccc(C(=O)N3CCC(Sc4ccccc4)CC3)cn2)cc1 [CBK160188] | 78.4394
4 | Cc1c(Cc2ccccc2)c(=O)oc2c(CN3CCCC(C)C3)c(O)ccc12 (stereo not drawn) [CBK266995] | 106.233
5 | c1ccc2c(c1)nnn2CNCn1nnc2ccccc21 [CBK261114] | 103.249
6 | COc1ccc(Cn2nc(-c3nc(C)no3)c3ccccc32)cc1 [CBK105834] | 59.7237
7 | CNC(=O)C1(Cc2ccc(-c3cccc(C)c3)cc2)CCN(C(=O)CC(C)C)CC1 [CBK285787] | 95.7798
8 | Cc1cc(C(F)F)n2nc(C(=O)Nc3cccc(S(=O)(=O)N4CCOCC4)c3)nc2n1 [CBK266198] | 101.307
9 | O=C(c1ccccc1)N1C[C@@H](c2ccsc2)[C@@H]2CN(Cc3ccccc3F)CC[C@@H]21 [CBK285612] | 67.7457
10 | Cc1ccc([C@]2(O)CC[C@H]3CN(Cc4cccc(F)c4F)C[C@H]32)nc1 [CBK283088] | 76.1769
11 | CC(=O)Nc1ccc(S(=O)(=O)N2CCN(c3ccc([N+](=O)[O-])c(NC4C5CC6CC(C5)CC4C6)c3)CC2)cc1 (stereo not drawn) [CBK268802] | 89.2246
12 | COc1ccc(S(=O)(=O)N2CCC(C(=O)O)CC2)cc1C(=O)O [CBK092181] | 109.816
13 | CC(=O)N1CCN(c2ccc(Oc3ncc(C(F)(F)F)cc3Cl)cc2)CC1 [CBK161650] | 96.8651
14 | Cc1c(C(N)=O)sc2nc(C(F)(F)F)cc(N)c12 [CBK061693] | 98.0015
15 | Cc1cc(C(=O)N(C)CC2(C)COC2)nc2ccccc12 [CBK281956] | 92.3254
16 | CC(=O)Nc1ccc(NCc2nc(C(C)C)no2)c(C(F)(F)F)c1 [CBK305743] | 45.998
17 | CSCC1CCCN(C(=O)c2cc3ncc(CCO)cn3n2)C1 (stereo not drawn) [CBK307256] | 69.8924
18 | COc1ccc(C)c2sc(NC(=O)c3sc(C)nc3C)nc12 [CBK287401] | 108.819
19 | Cn1ncc(Cl)c1C1CCCCCN1C(=O)c1cccnc1 (stereo not drawn) [CBK285146] | 132.164
20 | Cc1ccc(C(=O)N(Cc2nc(-c3ccc(Cl)cc3)no2)C(C)C)cc1[N+](=O)[O-] [CBK268422] | 76.6838
21 | Cc1oc2ccc(NS(=O)(=O)c3ccccc3)cc2c1C(=O)O [CBK287071] | 101.602
